Experimental findings from EPA's CvTdb concentration-time database are described below.

The structures appear in SMILES notation. Further values from the same series stand in other lists.

Test in all cases: concentration in plasma after dosing
For data set [1], the system named is Rat. The following applies: dosed: Perfluorodecanoic acid, 10 mg/kg, oral, Female, Harlan Sprague Dawley.
Data set [2] concerns Rat. The following applies: 3360 h; dosed: Perfluorooctane Sulfonate; 20 mg/kg; oral; Male; Harlan Sprague Dawley.
Data set [3] concerns Rat. The conditions noted are these: dosed: Perfluorooctane Sulfonate, 20 mg/kg, oral, Female, F344.
Data set [4] has as its system Rat. The following applies: 24 h; dosed: Perfluorooctanoic acid; 80 mg/kg; oral; Female; Harlan Sprague Dawley.
Data set [5] relates to Rat. The conditions noted are these: dosed: Fluorotelomer alcohol 8+2, 80 mg/kg, oral, Female, Harlan Sprague Dawley.
For data set [6], the system named is Rat. The following applies: dosed: Fluorotelomer alcohol 8+2, 160 mg/kg, oral, Female, Harlan Sprague Dawley.
Data set [7] has as its system Rat. The following applies: dosed: Perfluorooctanoic acid, 12 mg/kg, oral, Male, Harlan Sprague Dawley.

Regarding `O=C(O)C(F)(F)C(F)(F)C(F)(F)C(F)(F)C(F)(F)C(F)(F)C(F)(F)C(F)(F)C(F)(F)F` [Perfluorodecanoic acid], the concentration in plasma in data set [1] (0.5 h) came to 21000 ng/mL; in data set [1] (192 h), 52300 ng/mL; in data set [1] (1848 h), 9420 ng/mL.
As to `O=S(=O)([O-])C(F)(F)C(F)(F)C(F)(F)C(F)(F)C(F)(F)C(F)(F)C(F)(F)C(F)(F)F` [Perfluorooctane Sulfonate], the concentration in plasma in data set [2] was found to be 1370 ng/mL; in data set [3] (5 min), 924 ng/mL; in data set [3] (192 h), 73700 ng/mL; in data set [3] (2520 h), 11400 ng/mL.
As to `O=C(O)C(F)(F)C(F)(F)C(F)(F)C(F)(F)C(F)(F)C(F)(F)C(F)(F)F` [Perfluorooctanoic acid], the concentration in plasma in data set [4] amounted to 8720 ng/mL; in data set [5] (0.25 h) it was 106 ng/mL; in data set [5] (24 h) it was 148 ng/mL; in data set [6] (0.75 h), 1400 ng/mL; in data set [6] (12 h), 4460 ng/mL; in data set [7] (0.25 h), 17700 ng/mL. In addition, in data set [7] (864 h), the concentration in plasma was found to be 11000 ng/mL.
